In this experiment the test system is influenza virus A/PR-8. To be noted: 30 mg/kg i.p., 24 h and 3 h before infection and 5 times every other day from second day after; 21 days after challenge.

Structures can show the parent of a compound that is named as a salt.

Take `NC12CC3CC(CC(C3)C1)C2` [Amantadine hydrochloride, reference compound]: the “Prevention from influenza injection (Survival rate)” value (“Prevention from influenza injection” below) was determined as 30%. `CC(C)=CCCC(C)=CCCC(C)=CCCC(C)=CCCC(C)=CCCC(C)=CCCC(C)=CCCC(C)=CCCC(C)=CCNCc1ccccc1` [N-benzylsolanesylamine hydrochloride]: the “Prevention from influenza injection” value turned out to be 80%. On to `CC(C)=CCCC(C)=CCCC(C)=CCCC(C)=CCCC(C)=CCCC(C)=CCCC(C)=CCCC(C)=CCCC(C)=CCN(C)Cc1ccccc1` [N-methyl-N-benzylsolanesylamine hydrochloride], for which the “Prevention from influenza injection” value is 20%. For `CC(C)=CCCC(C)=CCCC(C)=CCCC(C)=CCCC(C)=CCCC(C)=CCCC(C)=CCCC(C)=CCCC(C)=CCN(C)c1ccccc1` [N-methyl-N-phenylsolanesylamine], the “Prevention from influenza injection” value is 20%. Next, `CC(C)=CCCC(C)=CCCC(C)=CCCC(C)=CCCC(C)=CCCC(C)=CCCC(C)=CCCC(C)=CCCC(C)=CCNCCc1ccccc1` [N-phenethylsolanesylamine hydrochloride]: 60%.

The values above are taken from US4322555A, “Nonaprenylamine derivatives” (priority 1980, dated 1982).
